# The other results are listed elsewhere or left out.
# Legend:
# [1] = system: HSkMC (human skeletal muscle cells); test: cytotoxicity call (relative viability < 0.9); settings: 10 µM
# [2] = system: S. aureus RN4220; test: growth inhibition call (relative growth <= 0.2); settings: 50 µM
Structure (SMILES),cytotoxicity call [1],growth inhibition call [2]
CC(C)(C)[S@](=O)N1Cc2cc(C(=O)N[C@@H]3CCN(Cc4ccccc4)C3)nc(-c3cccc(-c4ccncc4)c3)c2[C@@H]1CCO,inactive,inactive
C[C@@H]1CN([C@H](C)CO)C(=O)c2cc(NC(=O)Nc3cccc4ccccc34)ccc2O[C@@H](C)CCCCO[C@@H]1CN(C)S(=O)(=O)c1cn(C)cn1,inactive,inactive
COc1ccc(NC(=O)N(C)C[C@@H]2OCCCC[C@@H](C)Oc3ccc(NC(=O)Nc4ccc(C(F)(F)F)cc4)cc3C(=O)N([C@H](C)CO)C[C@@H]2C)cc1,inactive,inactive
COc1ccc(CN(C)C[C@H]2OCCCC[C@H](C)Oc3ccc(NC(=O)CCC(F)(F)F)cc3C(=O)N([C@@H](C)CO)C[C@H]2C)cc1,inactive,inactive
Cc1cccc(C)c1NC(=O)C1CCCCN1C.Cl (stereo not given),inactive,inactive
CC(C)CC#Cc1ccc2c(c1)O[C@@H](CN(C)C(=O)c1cccnc1)[C@H](C)CN([C@H](C)CO)S2(=O)=O,inactive,inactive
COc1ccc(NC(=O)Nc2cccc3c2O[C@H](CN(C)Cc2ccc(Cl)c(Cl)c2)[C@@H](C)CN([C@@H](C)CO)C3=O)cc1,active,inactive
C[C@@H]1CN([C@@H](C)CO)C(=O)Cc2cc(NC(=O)Cn3cnnn3)ccc2O[C@H]1CN(C)C(=O)Nc1ccccc1,inactive,inactive
COc1cccc(S(=O)(=O)N(C)C[C@@H]2Oc3cc(C4=CCCC4)ccc3S(=O)(=O)N([C@H](C)CO)C[C@@H]2C)c1,inactive,inactive
OCC1OC(OCCc2ccc(O)cc2)C(O)C(O)C1O (stereo not given),inactive,inactive
C[C@H](CO)N1C[C@H](C)[C@@H](CN(C)S(=O)(=O)c2cn(C)cn2)Oc2ccc(N(C)C)cc2CC1=O,inactive,inactive
C[C@H]1CN([C@@H](C)CO)C(=O)c2cccc(NC(=O)c3ccc(-c4nccs4)cc3)c2O[C@H]1CN(C)C(=O)Nc1ccc(F)cc1,inactive,inactive
O[C@H]1CCN(c2nccs2)C1,inactive,inactive
C[C@@H]1CN([C@@H](C)CO)C(=O)c2cccc(NC(=O)Nc3ccc4c(c3)OCO4)c2O[C@@H]1CN(C)C(=O)Nc1ccc(C(F)(F)F)cc1,inactive,inactive
CO[C@H](CN(C)S(=O)(=O)c1cn(C)cn1)[C@H](C)CN(C(=O)Nc1ccc(C(F)(F)F)cc1)[C@@H](C)CO,inactive,active
CCOC(=O)[C@H]1CSCCN1,inactive,inactive
C[C@@H]1CCCCO[C@@H](CN(C)C(=O)Nc2cccc3ccccc23)[C@@H](C)CN([C@H](C)CO)C(=O)c2cc(NC(=O)c3ccncc3)ccc2O1,inactive,inactive
NNC(=O)c1ccccc1O,inactive,inactive
C[C@H]1COC(=O)[C@@H](Cc2ccc(F)cc2)CC=CC[C@@H](CC(=O)N[C@H](CO)Cc2ccccc2)C(=O)N1,inactive,inactive
C[C@@H](O)c1nnc(N)[nH]1,inactive,inactive
COc1ccc(S(=O)(=O)N(C)C[C@@H]2Oc3c(NC(=O)c4cc(C)nn4C)cccc3C(=O)N([C@H](C)CO)C[C@H]2C)cc1,inactive,inactive
O=C1O[C@H](c2ccccc2)[C@H](c2ccccc2)N2[C@H]1[C@@H](C(=O)O)[C@]1(C(=O)Nc3ccc(C#CC4(O)CCCCCC4)cc31)[C@H]2c1ccccc1OCCO,inactive,inactive
COc1ccc(S(=O)(=O)Nc2ccc3c(c2)C(=O)N([C@H](C)CO)C[C@@H](C)[C@H](CN(C)Cc2ccccc2)OCCCC[C@H](C)O3)cc1,inactive,inactive
Cc1ccc(S(=O)(=O)NCC[C@@H]2CC[C@H](NS(=O)(=O)c3ccccc3Cl)[C@@H](CO)O2)cc1,inactive,inactive
C[C@H](CO)N1C[C@H](C)[C@H](CN(C)C(=O)Nc2cccc3ccccc23)Oc2ccc(NC(=O)Nc3ccc(C(F)(F)F)cc3)cc2C1=O,inactive,inactive

Structure (SMILES),cytotoxicity call [1],growth inhibition call [2]
C[C@H](CO)N1C[C@H](C)[C@H](CN(C)C(=O)Nc2ccc(F)cc2)Oc2ccc(NC(=O)CCN3CCOCC3)cc2CC1=O,inactive,inactive
COc1ccc(C#Cc2ccc([C@@H]3[C@@H](CO)N4CCCCN(S(=O)(=O)c5cn(C)cn5)C[C@H]34)cc2)cc1,active,inactive
O=C(O)CCc1nc2ccccc2[nH]1,inactive,inactive
COc1ccc(NC(=O)N(C)C[C@H]2OCCCC[C@H](C)Oc3ccc(NC(=O)Nc4c(C)noc4C)cc3C(=O)N([C@H](C)CO)C[C@@H]2C)cc1,inactive,inactive
Clc1ccc(CON=C(Cn2ccnc2)c2ccc(Cl)cc2Cl)c(Cl)c1.O=[N+]([O-])O,inactive,active
C[C@@H]1CN([C@H](C)CO)C(=O)c2cc(NS(=O)(=O)c3ccccc3)ccc2O[C@H]1CN(C)Cc1ccc(-c2ccccc2)cc1,inactive,inactive
C=CCOC(=O)[C@H]1[C@@H]2C(=O)O[C@@H](c3ccccc3)[C@@H](c3ccccc3)N2[C@@H](c2ccc(OCCOC(=O)[C@H]3C[C@H]4C(=O)N[C@@H](Cc5ccccc5)C(=O)N4[C@H]3c3ccc(O)cc3)cc2)[C@]12C(=O)Nc1ccccc12,inactive,inactive
C[C@@H]1CCCCO[C@H](CN(C)C(=O)Nc2cccc3ccccc23)[C@@H](C)CN([C@@H](C)CO)C(=O)c2cc(N(C)C)ccc2O1,inactive,inactive
O=C(O)CC[C@H]1CCCCN1,inactive,inactive
O=C1O[C@H](c2ccccc2)[C@H](c2ccccc2)N2[C@H]1[C@@H](C(=O)Nc1nc3ccccc3s1)[C@]1(C(=O)Nc3ccc(C#CCCO)cc31)[C@H]2c1ccc(OCCO)cc1,inactive,inactive
COc1ccc(O)cc1,inactive,inactive
COc1ccc(NC(=O)N(C)C[C@@H]2Oc3ccc(NS(=O)(=O)c4cn(C)cn4)cc3CC(=O)N([C@H](C)CO)C[C@H]2C)cc1,inactive,inactive
COc1ccc(S(=O)(=O)N[C@H]2CC[C@@H](CCNC(=O)CN3CCOCC3)O[C@@H]2CO)cc1,inactive,inactive
CCCC(=O)N(CCc1c[nH]c2ccccc12)[C@@H]1CC(C(=O)NCCO)=C[C@H](Oc2c(I)cc(CO)cc2OC)[C@H]1O,inactive,inactive
C[C@H]1CN([C@@H](C)CO)C(=O)c2cc(N(C)C)ccc2O[C@H]1CN(C)S(=O)(=O)c1ccc(Cl)cc1,inactive,inactive
CC1(C)C=Cc2c(c3c(c4c(=O)c(-c5ccc(O)cc5)coc24)OC(C)(C)CC3)O1,inactive,inactive
CO[C@@H]1CN(C)C(=O)c2ccc(NC(=O)Nc3cccc(F)c3)cc2OC[C@@H](C)N(C(=O)Nc2cccc(F)c2)C[C@H]1C,inactive,inactive
C[C@H]1CN([C@@H](C)CO)C(=O)c2cccc(NC(=O)C3CCCCC3)c2O[C@@H]1CN(C)Cc1ccc(C(=O)Nc2ccccc2N)cc1,inactive,inactive
COc1ccc(/C=C2/NC(=O)NC2=O)cc1,inactive,inactive
Cc1noc(C)c1S(=O)(=O)Nc1ccc2c(c1)C(=O)N([C@H](C)CO)C[C@H](C)[C@H](CN(C)C(=O)Nc1cccc3ccccc13)OCCCC[C@@H](C)O2,inactive,inactive
Cc1noc(C)c1NC(=O)Nc1ccc2c(c1)C(=O)N([C@H](C)CO)C[C@@H](C)[C@@H](CN(C)Cc1ccc(C(F)(F)F)cc1)OCCCC[C@@H](C)O2,inactive,inactive
Cc1noc(C)c1S(=O)(=O)N(C)C[C@H]1Oc2ccc(NS(=O)(=O)c3ccc(F)cc3)cc2CC(=O)N([C@@H](C)CO)C[C@H]1C,inactive,inactive
C[C@H](NC(=O)C[C@H]1CC[C@@H](NC(=O)CN2CCOCC2)[C@@H](CO)O1)c1ccccc1,inactive,inactive
C[C@H]1CN([C@@H](C)CO)S(=O)(=O)c2ccc(C#Cc3ccccc3F)cc2O[C@@H]1CN(C)C(=O)c1ccc2c(c1)OCO2,inactive,inactive
NC[C@H]1OB(O)c2c(OCCCO)cccc21,inactive,inactive

# — the antibiotic and cytotoxicity screens of Wong et al. (2023)
